Drawing on the supplement of paper PMC10126150, this text covers switch fluorescence ratio for 120 sequences.

Values marked as one replicate rest on one cluster of the flow cell; about a third of the high ones do not repeat.
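Note: ATP exposure 15 min at 22 °C before imaging.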

This data set relates to ATP. Put plainly: switch fluorescence ratio, 500 uM ATP over buffer (Cy3 cluster intensity, sum of 5 cycles each) (fold (ratio)); higher = stronger signal-on switching upon ATP binding; sequences stand for … in TCGTCGGCAGCGTCAGATGTGTATAAGAGACAGTTTTTTTTTTTTTTTTTTTTTTTTT…TC. The note with it: aptamer strand: ATP DNA aptamer (quencher-CACCTGGGGGAGTATTGCGGAGGAAGG + anchor), 100 nM annealed; ATP concentration: 500 uM; one replicate. The essentials: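 Per cluster, summed Cy3 intensity from the target cycles was divided by that from the buffer cycles to give the fluorescence ratio, then averaged per switch-domain sequence. Clusters outside 100-1000 RFU were excluded. The Cy3-labelled switching-strand clusters, on a modified Illumina MiSeq flow-cell, were annealed to 100 nM quencher-labelled ATP aptamer and imaged in selection buffer, then after 15 min with 500 uM ATP at 22 °C, for five cycles with NaOH stripping and re-annealing between them.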
Regarding GCATTGAAA, the switch fluorescence ratio was found to be 1.02. AGCTTCATTA: the switch fluorescence ratio is 0.993. Under GTGTTAAGCC stands 1.01.

On to CTACAGTAGA, for which the switch fluorescence ratio came to 1.01.

With CCTGCTCCCA, the switch fluorescence ratio was 1.32. Under TAGAGGCGTG stands 1.1. With TGGAAAAACG, the switch fluorescence ratio was determined as 1.14. For TTCTTGGCCC, the switch fluorescence ratio is 1.01. As for AAATGTATCG, the switch fluorescence ratio came to 0.983.

With AGGAATTGAG, the switch fluorescence ratio stood at 1. Under CTGGACGGGA stands 1.01; under CCGGTAGGTT, 1.03. The value for ATGAGCCATT was 1.02; that for TACCCGGCGT was 0.996; that for CGATGCTAGC was 1.28. The value for TTACAAGGGG was 1.04. In the case of GACAATTGCA, the switch fluorescence ratio was determined as 1.03. Under ACGGTATACT stands 1.37.

Turning to CGTATGATCC, the switch fluorescence ratio came to 1.03. Under CATTTGAGGA stands 1.01. The value for TGAGGTTCGG was 1.01. Under AGGGATGCGA stands 1.43; under ATTCGAAAAC, 1.12; under AAGATAATTT, 0.985. With TCTCGGCGGG, the switch fluorescence ratio came to 0.975. The value for TATTATCTCA was 0.989; that for AAGAAAGCTT was 0.954; that for TCATTAGTCG was 1.01. The value for CTGGGCGATT was 1; that for GCGTTCCCAG was 1.08. With GGTTGACTTC, the switch fluorescence ratio was 0.969.

For the sequence GTTATGTCTC, the switch fluorescence ratio was 1.02. Under ACCCCATGAA stands 1.04; under GTGAGATACC, 0.965. With GAGTAGAACT, the switch fluorescence ratio came out at 0.987.

Regarding ATAAAAAGA, the switch fluorescence ratio came out at 0.967. Under CATCCTTTGG stands 1.02; under GGCTTAATGC, 0.986; under GAGAAAAAAA, 0.98. The value for TGGTCATCTC was 1.01; that for TCCCGCGCCG was 1.17.

Regarding TGAGTGATGG, the switch fluorescence ratio was found to be 0.963. TTCAAGGACC: the switch fluorescence ratio was found to be 0.982. Under GCCTTTTTCC stands 1.19. Under TTACTGAT stands 1.02. Take TCTCATCGCA: the switch fluorescence ratio was 1.09. With GTCCTCGCGC, the switch fluorescence ratio was found to be 2.27. The value for TCTATTAGGG was 0.949. Turning to GCGTTTGAAT, the switch fluorescence ratio came to 0.964. As to ATAGAGGGAG, the switch fluorescence ratio came out at 1.01.

For the sequence ACTAGCTTCC, the switch fluorescence ratio came out at 3.35.

With AACTAATAAT, the switch fluorescence ratio is 1.02. On to ATGCTTACCC, for which the switch fluorescence ratio came to 1.09. As to GAGTCGCGCC, the switch fluorescence ratio worked out at 0.949.

As to AGTCTACACT, the switch fluorescence ratio amounted to 1.05. The value for GACTACATGT was 1.01; that for CCGACGGGTT was 2.97; that for TATCGGGACG was 0.962. Under TTCGTGTGGA stands 1.03; under CTGTTTGC, 0.964; under AGTAGTGTCG, 1.04.

On to ACCGTTATTA, for which the switch fluorescence ratio was determined as 1.05. The value for GATGTGGTTT was 1; that for AAAAGCTCCT was 1.12; that for TGTTACGCTA was 1.18. The value for ATTTTGCACA was 0.968. For the sequence GTTCATTACG, the switch fluorescence ratio is 0.994.

In the case of TGATCATCAG, the switch fluorescence ratio was 0.949. Under CGAATCATCG stands 1.02. ACGCATAGG: the switch fluorescence ratio was determined as 1.12. Under CGCGCTAATG stands 1.1; under ACGGAGTCTT, 1.02; under GTTAAGAAGA, 1.01. Under AGAGCCCGCT stands 1.01; under GTCGCAAAAT, 1.1; under TTTACTCATT, 0.989.

In the case of TGCACTTTCG, the switch fluorescence ratio amounted to 1.04.

With GCGAACGTGT, the switch fluorescence ratio was found to be 0.989. Under ACGATTGGTC stands 0.995. CTATGAACTT: the switch fluorescence ratio came out at 0.994.

For the sequence ATTGCAATGA, the switch fluorescence ratio worked out at 1.03. Under TGTAGACCGT stands 0.969. Under ATTATTGTGC stands 1.01. As to CTTCTGGGAA, the switch fluorescence ratio amounted to 1.03.

Regarding GTTGACGCCG, the switch fluorescence ratio was determined as 1.04. Regarding AGCCTCTGCT, the switch fluorescence ratio was found to be 1.02. On to GAACGCTAGT, for which the switch fluorescence ratio is 0.931. GCAAGACTGA: the switch fluorescence ratio was 1.6.

For the sequence GGAAGTTTAG, the switch fluorescence ratio came to 1.01.

For CGCCTCAAGC, the switch fluorescence ratio came out at 1.44. On to GAGATCTCCA, for which the switch fluorescence ratio amounted to 0.985. On to GGTCGGAACA, for which the switch fluorescence ratio is 0.979. On to ACGCTACGGT, for which the switch fluorescence ratio came out at 1.47.

On to CCAAAAAGGA, for which the switch fluorescence ratio amounted to 0.947. Under TTGAACGGCA stands 1.06; under ACGTGGATTC, 1.1. Turning to TAAGGCTGAT, the switch fluorescence ratio was found to be 1.04. The value for CAATGTGATA was 0.944; that for GGGTGTCCGG was 0.997; that for TATAGTGCAC was 0.961.

On to GTTTATGTTT, for which the switch fluorescence ratio was found to be 0.958. The value for ATAGGGGCCG was 1.07; that for GGGCTCGGTC was 1.05. For TAAGTCAAGG, the switch fluorescence ratio worked out at 1. The value for GGGTCCACTG was 1.08. Turning to CCAGTAGTGG, the switch fluorescence ratio is 1.01. The value for TGCAGTATG was 1.01; that for CGATTCTTTC was 0.991. On to CAATATCAGT, for which the switch fluorescence ratio worked out at 0.95. As to GTATAGGAAG, the switch fluorescence ratio was found to be 0.966. Under GGGCAAATGC stands 2.08. Consider CTATTAATCA, for which the switch fluorescence ratio is 1. Under AACGCTGTG stands 0.974; under CCGTCCATTT, 1.08; under TAGATTAGGG, 0.986. The value for TGAACTTGCA was 0.992; that for AAATACGATG was 1.03.

Take AATGGTTACT: the switch fluorescence ratio is 0.989. Under ACCGCAGTCA stands 1.57; under TATGCATAAT, 0.989.
